In paper PMC4336329 (PLoS ONE, 2015):
Hit rate of the full screen: of about 310,000 compounds, about 14,000 (4.5%) showed an effect of 50% or more. Effects have a minus sign here. The list shows a part of the results.

Molecular target: human ether-à-go-go-related gene (hERG) potassium channel (human, UniProt Q12809)
Assay: primary screen, population patch clamp on CHO cells stably expressing hERG
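Further: peak tail current of the secondary pulse compared with the same well before compound.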

Chain of human ether-à-go-go-related gene (hERG) potassium channel (Q12809 whole entry, looked up): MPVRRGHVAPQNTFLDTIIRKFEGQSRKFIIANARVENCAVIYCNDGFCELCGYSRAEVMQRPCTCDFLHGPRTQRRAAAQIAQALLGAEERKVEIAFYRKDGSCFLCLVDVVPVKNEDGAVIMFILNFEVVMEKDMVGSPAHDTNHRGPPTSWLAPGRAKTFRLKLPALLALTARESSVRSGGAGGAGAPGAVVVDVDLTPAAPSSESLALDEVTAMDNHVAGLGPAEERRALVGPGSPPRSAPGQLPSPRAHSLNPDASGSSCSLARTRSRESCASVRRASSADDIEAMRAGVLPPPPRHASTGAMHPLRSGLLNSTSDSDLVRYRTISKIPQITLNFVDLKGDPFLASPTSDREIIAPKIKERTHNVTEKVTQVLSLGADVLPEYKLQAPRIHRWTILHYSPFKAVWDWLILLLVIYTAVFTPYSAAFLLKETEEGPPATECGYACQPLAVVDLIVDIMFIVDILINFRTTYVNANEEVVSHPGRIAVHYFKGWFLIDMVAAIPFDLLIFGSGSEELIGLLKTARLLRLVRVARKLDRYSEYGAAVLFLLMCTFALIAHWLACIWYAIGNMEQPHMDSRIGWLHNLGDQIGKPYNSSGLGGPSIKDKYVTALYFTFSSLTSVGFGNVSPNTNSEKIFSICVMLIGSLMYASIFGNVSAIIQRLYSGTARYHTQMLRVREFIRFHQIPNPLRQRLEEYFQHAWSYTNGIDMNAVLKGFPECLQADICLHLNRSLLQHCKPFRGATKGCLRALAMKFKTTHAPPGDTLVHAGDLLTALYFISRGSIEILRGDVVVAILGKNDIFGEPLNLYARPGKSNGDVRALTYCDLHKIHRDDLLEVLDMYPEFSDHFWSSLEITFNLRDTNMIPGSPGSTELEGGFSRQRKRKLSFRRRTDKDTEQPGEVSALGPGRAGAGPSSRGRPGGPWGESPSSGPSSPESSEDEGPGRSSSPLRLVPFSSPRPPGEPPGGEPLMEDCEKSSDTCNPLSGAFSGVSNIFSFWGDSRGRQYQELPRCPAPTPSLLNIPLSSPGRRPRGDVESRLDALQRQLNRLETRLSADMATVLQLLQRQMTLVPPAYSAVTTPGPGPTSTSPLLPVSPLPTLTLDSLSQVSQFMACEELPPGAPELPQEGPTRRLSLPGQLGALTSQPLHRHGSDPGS

First: COc1ccc(C(=O)NCCCNC(=O)c2cnccn2)cc1
Second: CCNC(=O)Oc1ccc(-c2csnn2)cc1
The “hERG current change (%, negative = inhibition) at 10uM” value of the first is lower: 14.3% for the first, 33.7% for the second.

Going from `Cc1cccc(C(C#N)c2ccc(Cl)nn2)c1` (stereo not shown) to `Cc1c(Cl)cccc1NC(=S)NCc1ccccc1`, the “hERG current change (%, negative = inhibition) at 10uM” value rises from 16% to 16.5%.

Compared with `CCOc1cc(C)c(S(=O)(=O)NCc2ccccn2)cc1C`, `CC(C)(C)NS(=O)(=O)c1ccc(CCC(=O)NCc2ccccn2)cc1` is higher in “hERG current change (%, negative = inhibition) at 10uM” value: -1.85% for the first, 13.4% for the second.

Compared with `CC1=NNC(=O)C1C(c1ccccc1)C1C(=O)NN=C1C.O=C(O)C(=O)O` (stereo not shown), `CC(=O)c1c(C)[nH]c(C(=O)NCCc2ccccc2)c1C` is higher in “hERG current change (%, negative = inhibition) at 10uM” value: 6.31% for the first, 14.5% for the second.

Going from `CCOC(=O)c1cc(-c2csc(COc3ccc(Cl)cc3)n2)on1` to `CCN(Cc1nc2cc(Cl)ccc2c(=O)[nH]1)C(=O)c1cccc(OCc2c(C)noc2C)c1`, the “hERG current change (%, negative = inhibition) at 10uM” value falls from 8.07% to -57.4%.

Going from `COc1ccc(/C=N/Nc2ncnc3scc(-c4ccccc4)c23)cc1OC` to `CCN(C(=O)CCc1nnc2ccc(NCc3ccco3)nn12)c1ccccc1`, the “hERG current change (%, negative = inhibition) at 10uM” value falls from 7.34% to -6.9%.

Going from `CC(=O)N1CCN(c2ccc(NC(=O)c3ccc(N4CCCC4)c([N+](=O)[O-])c3)cc2Cl)CC1` to `CCc1nnc(NS(=O)(=O)c2ccc(NC(=O)c3cc(Cl)ccc3[N+](=O)[O-])cc2)s1`, the “hERG current change (%, negative = inhibition) at 10uM” value rises from -12.4% to 15.2%.

Going from `COC(=O)c1c(NC(=O)C2CC(C)=C(C)CC2C(=O)O)sc2c1CCCCC2` (stereo not shown) to `COc1ccc(NC(=O)CN(C)C(=O)c2ccccc2SCC(=O)N2CCCC2)cc1`, the “hERG current change (%, negative = inhibition) at 10uM” value rises from -3.52% to 10.5%.

Compared with `CCN(c1ccc(OC)cc1)S(=O)(=O)c1cc(-c2cc(C)no2)ccc1C(C)C`, `Cc1ccccc1N(CC(=O)NCCSCc1ccccc1)S(C)(=O)=O` is lower in “hERG current change (%, negative = inhibition) at 10uM” value: 14.9% for the first, -10.7% for the second.

Going from `Cc1c(NC(=O)Oc2ccccc2)sc(=S)n1C` to `O=C(c1ccc2c(=O)n(Cc3ccccc3Cl)c(=S)[nH]c2c1)N1CCOCC1`, the “hERG current change (%, negative = inhibition) at 10uM” value falls from 20.7% to 9.51%.

First: COCCCNC(=O)CN1C(=O)CSc2ccc(S(=O)(=O)N3CCOCC3)cc21
Second: Cc1nc(-c2ccccn2)nc(SCC(=O)N2CCOCC2)c1Cl
The “hERG current change (%, negative = inhibition) at 10uM” value of the first is lower: 14.5% for the first, 16.4% for the second.

Compared with `CCOc1ccccc1OCCN1CCCC1`, `COc1ccc(OC)c(C2NC(=O)CCC2[N+](=O)[O-])c1` (stereo not shown) is higher in “hERG current change (%, negative = inhibition) at 10uM” value: 9.51% for the first, 16.4% for the second.

With `O=C(N/N=C/c1c[nH]c2ccc(Br)cc12)c1ccc2c(c1)OCO2` the “hERG current change (%, negative = inhibition) at 10uM” value was 21.1%.
